In PMC6919601, “Identification of Plasmodium dipeptidyl aminopeptidase allosteric inhibitors by high throughput screening” (PLoS ONE, 2019):
About 230 (0.21%) of roughly 110,000 compounds showed an effect of 50% or more. The list shows a part of the results.

These molecules were tested against DPAP1 (Plasmodium falciparum, UniProt Q8IIJ9) (assay: primary screen, percent inhibition; read by cleavage of a fluorogenic dipeptide substrate; higher = more effect of the substance).
Set-up: species or system P. falciparum D10 trophozoite lysates; single well
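Further: 30 min substrate incubation versus DMSO and 10 µM JCP410 controls.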

Chain of DPAP1 (Q8IIJ9 whole entry, looked up): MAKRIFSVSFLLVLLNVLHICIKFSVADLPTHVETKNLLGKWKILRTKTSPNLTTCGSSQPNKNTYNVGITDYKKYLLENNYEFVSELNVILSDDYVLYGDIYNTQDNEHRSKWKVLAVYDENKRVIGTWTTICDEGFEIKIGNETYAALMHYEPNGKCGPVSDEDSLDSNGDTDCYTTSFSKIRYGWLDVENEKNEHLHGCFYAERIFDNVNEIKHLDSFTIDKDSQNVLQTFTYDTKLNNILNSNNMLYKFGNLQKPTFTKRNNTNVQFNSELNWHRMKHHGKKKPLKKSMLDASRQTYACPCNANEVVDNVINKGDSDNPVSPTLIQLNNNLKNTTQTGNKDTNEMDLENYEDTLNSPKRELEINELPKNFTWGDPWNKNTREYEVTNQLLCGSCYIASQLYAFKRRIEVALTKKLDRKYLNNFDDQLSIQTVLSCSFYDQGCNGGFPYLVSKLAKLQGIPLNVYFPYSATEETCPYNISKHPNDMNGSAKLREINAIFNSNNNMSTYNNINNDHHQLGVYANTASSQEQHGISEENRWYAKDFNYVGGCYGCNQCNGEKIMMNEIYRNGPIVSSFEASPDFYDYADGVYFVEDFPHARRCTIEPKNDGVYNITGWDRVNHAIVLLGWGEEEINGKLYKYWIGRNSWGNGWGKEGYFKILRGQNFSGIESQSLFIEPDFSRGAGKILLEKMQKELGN

Structure (SMILES) | % Inhibition @ 10 uM [%]
CCOC(=O)c1c(S(=O)(=O)NCCC(C)N2CCOCC2)c(C)n(C)c1C (centres unmarked) | -6.25
COC(=O)C1=C(C)N=C2SCCC(=O)N2C1c1ccccc1 (centres unmarked) | 2.05
Oc1nc2nonc2nc1Nc1ccccc1 | 1.29
CCN(CC)C(=O)CN(c1cc(C)cc(C)c1)S(=O)(=O)c1ccccc1 | 2.02
Clc1ccccc1CN1CCN(Cc2ccccc2)CC1 | -0.127
COc1cc(C2CC(=O)N3CN(C4CCCCC4)CSC3=C2C#N)ccc1O (centres unmarked) | -1.28
COc1ccc(C2SC(C)C(=O)N2c2ccc(C)cc2)cc1 (centres unmarked) | -3.44
Cc1ccc2c(CN3CCN(Cc4ccc5c(c4)OCO5)CC3)cc(=O)oc2c1 | 3.27
Cc1cccc(N2C(=O)CC(N3CCN(C4CC(=O)N(c5ccccc5C)C4=O)CC3)C2=O)c1 (centres unmarked) | -2.73
COCCNC(=O)C1CCN(S(=O)(=O)c2ccc3c(c2)nc(C)n3C2CCCC2)CC1 | -1.75
CCOC(=O)c1c(S(=O)(=O)N(C)C2CCCCC2)c(C)n(C)c1C | -5.28
Cc1nn(C)cc1CN(C)C(=O)C12CC3CC(CC(C3)C1)C2 | 2.42
COc1ccc(NC(=O)Cc2cccc3ccccc23)cc1 | -2.19
O=C(O)CS(=O)(=O)c1ccc(-c2ccc(S(=O)(=O)CC(=O)O)cc2)cc1 | -3.52
CN(C(=O)Cn1nnc2sc3c(c2c1=O)CCCC3)C1CCCCC1 | 2.41
COc1ccccc1C1C2=C(O)CC(C)(C)CC2=Nc2[nH]nc(-c3ccccc3)c21 (centres unmarked) | 3.02
CC(C)c1cc(C(C)C)c(S(=O)(=O)Nc2ccc(S(N)(=O)=O)cc2)c(C(C)C)c1 | 21.6
Fc1ccccc1N1CCN(C/C=C/c2ccccc2)CC1 | -7.34
O=C(CSc1nnc(Cc2ccccc2)o1)N1CCOCC1 | 2.97
N#CCNC(=O)[C@H](CC1CCCCC1)NC(=O)N1CCCCC1 | -0.214
C(=N\n1cnnc1)/c1cccc2ccccc12 | 6.23
CCOC(=O)c1c(NC(=O)c2cccc(Cl)c2)sc(C(C)=O)c1C | 1.18
Cc1nc2cc(-c3ccccc3)nn2c(C)c1C | 2.44
C[C@]12CCC(OC3CCCCO3)CC1CCC1C2CC[C@]2(C)C(O)CCC12 (some centres unmarked) | -2.87
Cc1ccc(S(=O)(=O)N(CC(=O)NCc2cccnc2)c2ccc(Cl)cc2)cc1 | 0.812

Structure (SMILES) | % Inhibition @ 10 uM [%]
Nc1c(O)nc2ccc(Cl)c3c2c1-c1ccccc1C3=O | -5.62
COc1ccc(Nc2nc(N)nc(CSc3nc(C)cc(C)n3)n2)cc1 | -0.884
CCc1ccc(/C=C2/Sc3ccccc3C2=O)cc1[N+](=O)[O-] | -3.32
Cc1cc(=O)n(C)c(=O)n1Cc1ccccc1C(=O)O | -2.19
NC(=O)C1(N2CCCCC2)CCN(S(=O)(=O)c2cccs2)CC1 | 4.18
O=C(C1CCN(S(=O)(=O)c2ccc3[nH]c4c(c3c2)CCCCC4)CC1)N1CCCC1 | -8.07
O=S(=O)(c1ccc(S(=O)(=O)N(Cc2ccccn2)CC2CCCO2)cc1)N1CCCCC1 (centres unmarked) | 0.401
CC(C)OCCCNC(=O)c1ccc2c(c1)nc(S)n1c3ccccc3nc21 | 2.07
CC(C)CCn1c(CN2CC(C)OC(C)C2)nc2c1c(=O)n(C)c(=O)n2C (centres unmarked) | -3.23
COc1ccc(NS(=O)(=O)c2ccc(NC(=O)C3CCCCC3)cc2)cc1 | -3.41
C=C(C)Cn1c(=S)[nH]c2c(c1=O)C(C)(C)Cc1ccccc1-2 | -0.929
CCC/N=c1\c(NS(C)(=O)=O)c(O)oc2ccccc12 | -4.46
CC1=C(C(=O)N2CCOCC2)C(c2ccsc2)C2=C(O)CCCC2=N1 (centres unmarked) | -2.24
CCOC(=O)C1=C(CN(CC)CC)N(C)C(=O)NC1c1ccccc1 (centres unmarked) | 1.13
COc1ccc(-c2cc(C(F)(F)F)c(C#N)c(SCC(=O)NC(C)C)n2)cc1OC | 6.27
CCOC(=O)N1CCC(n2c(SCc3ccc(C)cc3)nc3ccsc3c2=O)CC1 | 6.18
CCN(CC)C(=O)c1cc(-c2cc(C(=O)N(CC)CC)c3ccccc3n2)nc2ccccc12 | 1.12
CC(=O)Nc1cccc(NC(=O)c2ccc(F)cc2)c1 | -5.5
O=C(O)c1ccc(CNC(=O)C2CCC(CNS(=O)(=O)c3cccc4nsnc34)CC2)cc1 (centres unmarked) | -0.465
COc1ccccc1CN1CCC(N2CCCCC2)CC1 | -6.6
COc1cccc(N/C=C(\C#N)C(=O)NC(=O)Cc2ccccc2)c1 | -6.69
CCC(Oc1ccccc1)C(=O)Nc1nnc(S(=O)(=O)N2CCCCC2)s1 (centres unmarked) | -1.72
Cc1ccccc1CNC(=O)CN(c1cccc(F)c1)S(C)(=O)=O | -3.92
C/C(O)=C1/C(=O)NC(=O)N(c2ccc(Cl)cc2)C1=O | 4.15
CC(C)CC(C(=O)NCC#N)c1cccc(-c2cccc([SH+](O)(O)NCCN3CCOCC3)c2)c1 (centres unmarked) | 0.173

Structure (SMILES) | % Inhibition @ 10 uM [%]
COc1ccccc1OCCn1c(CCNC(=O)C2CCCCC2)nc2ccccc21 | 6.31
Cc1cccc(NC(=O)CN2C(=O)N/C(=C/c3c[nH]c4ccccc34)C2=O)c1 | 1.92
O=[N+]([O-])c1ccc(N2CCCCC2)c2nonc12 | 7.13
CCNC(=O)c1ccc2c(c1)sc1nc(-c3ccc(OC)cc3)cn12 | 7.63
CCCCSc1nnc(NC(=O)CSc2nc3cccnc3[nH]2)s1 | 0.776
CCCCN(CCCC)CCNC(=O)CN1N=C(c2ccc(OC)cc2)CCC1=O | 4.81
Cc1nc2c3c(-c4ccc(C(C)C)cc4)nc(N4CCOCC4)nc3nn2c(C)c1CCC(=O)O | 4.23
CS(=O)(=O)CCC(C(=O)N1CCN(C(=O)c2ccco2)CC1)N1Cc2ccccc2C1=O (centres unmarked) | -4.38
COc1ccc(CN2CCN(c3ccccc3)CC2)cc1Br | -0.192
O=C(Nc1c(C(=O)NC2CCCCC2)cnn1-c1ccccc1)c1ccccc1 | -1.19
Cc1ccc(OCC(=O)Nc2ccc3ccccc3c2)cc1 | -5.11
Cc1cc2ccccc2n1-c1ccc(C(=O)N2CCOCC2)s1 | 1.95
CCOC(=O)N1CCC(NS(=O)(=O)c2cc(C(=O)OC)n(C)c2)CC1 | -2.84
CCC(C)Oc1ccc(/C=C2/NC(=O)NC2=O)cc1Br (centres unmarked) | 2.17
Cn1c(C(=O)NCCc2ccc(S(N)(=O)=O)cc2)cc2sc(Cl)cc21 | -4.85
COc1ccc(NC(=O)c2sc3nc4c(cc3c2N)CCCCC4)cc1OC | 2.82
N#Cc1c(N)nc2c(c1-c1ccsc1)CCCCCC2 | -2.7
NC(=O)c1cc2nc(-c3ccccc3)cc(C(F)(F)F)n2n1 | 2.65
CC(C)(C)c1ccc(C(=O)NC2(C(F)(F)F)NC(=O)N(C3CCCCC3)C2=O)cc1 (centres unmarked) | 0.221
N#CC1=C(N)Oc2ncnc(O)c2C1c1ccccc1C(F)(F)F (centres unmarked) | -2.78
COc1cccc(CN2CCN(Cc3ccc(Cl)cc3)CC2)c1OC | -10.5
COc1ccc2sc3ccccc3c(=O)c(=O)c2c1 | -17.7
CN1CCC(N(C)Cc2cccc(C(F)(F)F)c2)CC1 | 2.33
Cc1nn2c3c(cnc2c1-c1ccc(Cl)cc1)C(=O)CCC3 | -4.78
O=C(CN1CCN(Cc2ccc(Cl)cc2)C1=O)NCc1ccc(Cl)cc1 | -0.984

Structure (SMILES) | % Inhibition @ 10 uM [%]
CCOC(=O)c1sc(N2C(=O)C(O)=C(C(=O)c3ccco3)C2c2ccc(C(C)(C)C)cc2)nc1C (centres unmarked) | 3.8
COc1ccc(S(=O)(=O)N(CC(=O)Nc2cccnc2)c2ccc(C)cc2)cc1Br | 1.62
Cc1ccccc1C1C=C(c2cccs2)Nc2nnnn21 (centres unmarked) | -5.19
COc1cccc(NC(=O)CN(c2cccc(Br)c2)S(C)(=O)=O)c1 | 1.67
CCOc1cccc2c1OC(c1cccc(OC)c1OC)N1N=C(c3ccc(C)o3)CC21 (centres unmarked) | 26.2
CC(C)=C1C2CCC1C(C(=O)Nc1cccc(C(F)(F)F)c1)C2C(=O)O (centres unmarked) | 3.91
CC1CCN(S(=O)(=O)c2ccc(NC(=O)CCCOc3ccccc3)cc2)CC1 | -0.185
Cc1ccccc1-c1nc(CS(=O)CC(=O)NCCCN2CCOCC2)c(C)o1 (centres unmarked) | 2.37
CCCCOc1ccc(Nc2cc(-c3ccccc3)nc(-c3ccccc3)n2)cc1 | 1.87
CCc1nn(CC(=O)N2CCOCC2)c(=O)c2cc3sccc3n12 | 3.4
COc1ccccc1NC(=O)C1=C(C)Nc2nc(CCCO)nn2C1c1ccc(O)cc1 (centres unmarked) | 3.53
CCCN(C/C=C/c1ccccc1OC)CCO | -1.78
CCCCCOc1ccc(C2c3c(oc4ccccc4c3=O)C(=O)N2c2nccs2)cc1OC (centres unmarked) | -0.828
Fc1ccc(C2CC(c3ccco3)n3ncnc3N2)cc1 (centres unmarked) | -8.62
CCOCCCNC(=O)C(c1ccc(Cl)cc1)N1CCOCC1 (centres unmarked) | 6.57
Fc1ccc(N2CCN(Cc3ccc(Cl)c(Cl)c3)CC2)cc1 | -3.13
c1cncc(CNCc2ccncc2)c1 | 3.36
CCN(CC)S(=O)(=O)NC(=O)Nc1nc(C)cc(C)n1 | 3.78
CC(=O)N(CN1C(=O)C2CCC(C)CC2C1=O)c1ccc(C)cc1 (centres unmarked) | 5.46
O=C(O)C1CCCCC1C(=O)Nc1ccc(F)c(F)c1 (centres unmarked) | -8.06
CCOC(=O)C1=C(C)NC(=O)N(C(C)=O)C1c1ccc(Cl)cc1 (centres unmarked) | -9.37
N#Cc1ccc(NC(=O)/C=C/c2ccccc2)cc1 | 6.18
Cc1c(OCc2ccccc2)ccc2c3c(c(=O)oc12)CCC3 | -3.98
